{"source": "the supplement of paper PMC11417369", "note": "The other results are listed elsewhere or left out."}
{"tested_on": "PF3D7_0420300 AP2 domain 1 (GST-tagged)", "assay": "gcPBM binding intensity (ln(normalized median fluorescence intensity)); higher = stronger DNA binding", "method_in_brief": "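Binding of GST-tagged P. falciparum DNA-binding domains, expressed in E. coli and used at about 25 μg on average, was carried out for 1 h in 1× PBS containing 1% milk, 0.2 mg/ml BSA, 0.5% salmon testes DNA and 0.03% Triton X-100. The target was an Agilent 4 × 180k array of primer-extended double-stranded 36-bp intergenic genomic probes plus negative controls, read with Alexa488 anti-GST antibody at 488 nm. Binding intensity is the highest Masliner-normalised natural-log median intensity across replicate spots of either probe orientation.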"}
{"sequence": "TATGTATTTATATATACACACTTCTGTGATACGAAA [CACACA_site5128]", "gcPBM binding intensity (ln)": 9.15}
{"sequence": "TTTTTGTTTTTTTTTTGTACATATATATAAAAAATA [XGTACX_site1214]", "gcPBM binding intensity (ln)": 9.12}
{"sequence": "TTTTTTTTAATATTTTACATTGTCTGTTAACAAATA [CACACA_negctrl_site599]", "gcPBM binding intensity (ln)": 9.14}
{"sequence": "ATGAACATTTATAAATGTACTCACATATATATATTT [XGTACX_site6692]", "gcPBM binding intensity (ln)": 9.21}
{"sequence": "TTTATATTTATCCAAAGTACTTTTTAAAAACATACC [XGTACX_site4518]", "gcPBM binding intensity (ln)": 8.92}
{"sequence": "AAAAAAAAAAAAAAAACACACATTTGAAAGAAAGAA [CACACA_site3339]", "gcPBM binding intensity (ln)": 9.49}
{"sequence": "TACACCCATGGACACACACACACGCATAAAAAAAAA [CACACA_site4933]", "gcPBM binding intensity (ln)": 9.93}
{"sequence": "ATTTTTATTTTCTTTACACACCACATAATTTTTTTT [CACACA_site6092]", "gcPBM binding intensity (ln)": 9.75}
{"sequence": "GCCACACTTTTCTGCACACATAAAAAATATATAAAT [CACACA_site578]", "gcPBM binding intensity (ln)": 9.62}
{"sequence": "TATATCGTTATATAAACACACAATATGTTTTTTATA [CACACA_site7730]", "gcPBM binding intensity (ln)": 9.31}
{"sequence": "CTTTTATGAAACAGTGCACACATAAAAATATATACA [CACACA_site8981]", "gcPBM binding intensity (ln)": 9.4}
{"sequence": "CATAAGAGGAACTTTTGTACTTATATGTATATAGTA [XGTACX_site5836]", "gcPBM binding intensity (ln)": 9.02}
{"sequence": "ATTTATTGACTATTTACACACATATTTATTAGAATA [CACACA_site6863]", "gcPBM binding intensity (ln)": 9.53}
{"sequence": "GGGAGGATAGTTCACAGTACCCAGTAACTCTACGGA [XGTACX_site2558]", "gcPBM binding intensity (ln)": 9}
{"sequence": "ATGATACATAAAGAATATAAAACATGAAATATAATA [CACACA_negctrl_site1461]", "gcPBM binding intensity (ln)": 9.51}
{"sequence": "AACTGAGAAACCGAAGTGCAATATGTATATATACAT", "gcPBM binding intensity (ln)": 9.36}
{"sequence": "ATATGAAAGGTGTACACACGCACACCCAAAAAAATA [CACACA_site2911]", "gcPBM binding intensity (ln)": 9.57}
{"sequence": "TAATTTAAAAATATAAATGTTTCACTTATATATTTT [TGCATGCA_negctrl_site399]", "gcPBM binding intensity (ln)": 8.89}
{"sequence": "ATATATAATATATATGCATGTGACATTAATAATATA [TGCATGCA_site880]", "gcPBM binding intensity (ln)": 9.18}
{"sequence": "CCACACTTAAAATACACACACACCAAAAAAAAAAAA [CACACA_site2709]", "gcPBM binding intensity (ln)": 10}
{"sequence": "TTTTTTACGCATAACTTAATATGAGAATCCCTTTCT [GTGCAC_negctrl_site522]", "gcPBM binding intensity (ln)": 9.07}
{"sequence": "TTCCTCTTAAAATATACACACTGATTTAAGAAAAAA [CACACA_site5770]", "gcPBM binding intensity (ln)": 8.94}
{"sequence": "ATATATAATACTACAGTGCAATATATTATATTTGTT", "gcPBM binding intensity (ln)": 9.27}
{"sequence": "TTGTGATTATTATATTGTACAATAAGTATTAAAGAA [XGTACX_site2753]", "gcPBM binding intensity (ln)": 9.2}
{"sequence": "GCAAATCATGCTATGGTGCATATGTAAGATGAGCAT", "gcPBM binding intensity (ln)": 9.04}
{"sequence": "ATACTAAATATAAATTGTACTTTATTTATATTGAGA [XGTACX_site8699]", "gcPBM binding intensity (ln)": 9.08}
{"sequence": "TTAACATAGATATATACACACCAATGATGGCATTTA [CACACA_site6840]", "gcPBM binding intensity (ln)": 9.3}
{"sequence": "TATATATATATATATATACACACTATATAATTCAAA [CACACA_site1023]", "gcPBM binding intensity (ln)": 9.27}
{"sequence": "TTTTTTTTTTTTTAGAGTACACACTTTTTTACATTT [XGTACX_site8159]", "gcPBM binding intensity (ln)": 9.19}
{"sequence": "CATAAAATATAAAACACACACACATATATTTATATA [CACACA_site6247]", "gcPBM binding intensity (ln)": 10}
{"sequence": "AAATAAAAGTTCACCTGTACACACATATATATATGT [XGTACX_site3513]", "gcPBM binding intensity (ln)": 9.56}
{"sequence": "AAAATAATATTTAATACACACATAATTATAATATAA [CACACA_site782]", "gcPBM binding intensity (ln)": 9.5}
{"sequence": "ATTTTTAATTGAATCACACATTTCCTTTCTTTTGTG [CACACA_site4438]", "gcPBM binding intensity (ln)": 9.41}
{"sequence": "ATTAAAAATAAGAAGAGTACATATAATATATATACA [XGTACX_site3092]", "gcPBM binding intensity (ln)": 9.29}
{"sequence": "ACCTTTTGGATTATATGTACATATATATATATATAT [XGTACX_site2687]", "gcPBM binding intensity (ln)": 9.33}
{"sequence": "TTAAAAAGAAAGTTCACACACATATATATGACGGAA [CACACA_site2602]", "gcPBM binding intensity (ln)": 9.69}
{"sequence": "AGAATACATCTATGAACACACAGAGTTTTAAAAAAT [CACACA_site5514]", "gcPBM binding intensity (ln)": 9.39}
{"sequence": "TTTTTCATTTAACAGAAGGGAGATAAAAAAAAAAAA [TGCATGCA_negctrl_site261]", "gcPBM binding intensity (ln)": 8.89}
{"sequence": "ATATTATTTTAAAGTACACACATATATTGATATATA [CACACA_site7153]", "gcPBM binding intensity (ln)": 9.39}
{"sequence": "GTATGTATGTATGTATGTACGTATGTATGTATATAT [XGTACX_site3369]", "gcPBM binding intensity (ln)": 9.43}
{"sequence": "AATAATTATAAAAAATGTACAAAAAAAAAAAAAAAA [XGTACX_site3681]", "gcPBM binding intensity (ln)": 9.08}
{"sequence": "TATTTTTTTAAAAATACACACATAAAATCATGAAAA [CACACA_site1085]", "gcPBM binding intensity (ln)": 9.26}
{"sequence": "TTTTTTTATATTTTTAGTACACATTGGTATATATAT [XGTACX_site4114]", "gcPBM binding intensity (ln)": 9.38}
{"sequence": "ATATATATATGTCAAAGTACTAAAAATATATACATA [XGTACX_site3397]", "gcPBM binding intensity (ln)": 9.2}
{"sequence": "CATAGAATAATTTATTGTACGTGCATGCTATTTTTT [XGTACX_site8984]", "gcPBM binding intensity (ln)": 9.37}
{"sequence": "ATTAAATATATGATGTGTACATATTCGTGTATGTTT [XGTACX_site2141]", "gcPBM binding intensity (ln)": 9.57}
{"sequence": "AAACAGAATACATATACACACATACAAAAAAGTGCA [CACACA_site8235]", "gcPBM binding intensity (ln)": 9.85}
{"sequence": "TATACATTTTTATAAAGTACACAAAAATAAATATAA [XGTACX_site1647]", "gcPBM binding intensity (ln)": 9.17}
{"sequence": "AATGCTATCTTCTTATTTTTCATACACAACATGAAC [CACACA_negctrl_site1809]", "gcPBM binding intensity (ln)": 9.4}
{"sequence": "TATAATATTTATATAACACACATATATATTTATTTA [CACACA_site280]", "gcPBM binding intensity (ln)": 9.26}
{"sequence": "AAAATAAATTTTTATGTTATATATACAATTTCTCTA [CACACA_negctrl_site1760]", "gcPBM binding intensity (ln)": 9.02}
{"sequence": "TTATGAAATAGAATAACACACATATTTATATATGTG [CACACA_site2050]", "gcPBM binding intensity (ln)": 9.39}
{"sequence": "TATATATTATAAAATAGTACACAGAATTTAAATATA [XGTACX_site100]", "gcPBM binding intensity (ln)": 9.31}
{"sequence": "TATATATAGAAACACACACACATATATATATATTTT [CACACA_site2540]", "gcPBM binding intensity (ln)": 10.1}
{"sequence": "TTGTTGATTGTTATTTATCATTAGATGTAAAATATG [CACACA_negctrl_site927]", "gcPBM binding intensity (ln)": 9.26}
{"sequence": "AATATTTTTTTATAAACACACATATAAATAAATATA [CACACA_site7622]", "gcPBM binding intensity (ln)": 9.21}
{"sequence": "TCTTTTAAACAGTACACACACACATATATATATATA [CACACA_site924]", "gcPBM binding intensity (ln)": 9.94}
